# Reference: the supplement of paper PMC4967469
# Lines with a small IC50 respond at low doses; a fit beyond the top or the lowest dose is shown as a bound at that dose. AUC is the area under the same curve over the 256-fold range up to the top dose, as a fraction; the more sensitive the line, the further below 1.
# Compound: COc1ccc(C2=N[C@@H](c3ccc(Cl)cc3)[C@@H](c3ccc(Cl)cc3)N2C(=O)N2CCNC(=O)C2)c(OC(C)C)c1 [Nutlin-3a]
# Assay: Viability of human cancer cell lines after 72 h of drug (GDSC screen)
# Description: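 Human cancer cell lines in 384-well plates, medium with 10% serum, drug for 72 h over a 256-fold dose range (nine 2-fold or five 4-fold steps up to the top dose). Adherent lines were fixed and stained with the nucleic acid dye Syto60, suspension lines read with resazurin; signal relative to control wells, capped at 0 and 100%. One two-parameter sigmoid per drug and line, fitted in a mixed model over all curves with the slope shared within a line.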
Cell Line,AUC,IC50
"Jurkat (T-cell leukaemia, suspension, top dose 8 µM)",0.984,> 8 µM
"K2 (melanoma, adherent, top dose 8 µM)",0.947,> 8 µM
"K5 (thyroid, adherent, top dose 4 µM)",0.777,1.54 µM
"KARPAS-45 (lymphoblastic leukaemia, suspension, top dose 8 µM)",0.967,> 8 µM
"KARPAS-231 (B-cell leukaemia, suspension, top dose 8 µM)",0.989,> 8 µM
"KARPAS-299 (anaplastic large cell lymphoma, suspension, top dose 8 µM)",0.973,> 8 µM
"KARPAS-422 (B-cell lymphoma, suspension, top dose 8 µM)",0.983,> 8 µM
"KARPAS-620 (haematopoietic neoplasm, suspension, top dose 8 µM)",0.991,> 8 µM
"KARPAS-1106P (B-cell lymphoma, suspension, top dose 8 µM)",0.838,4.1 µM
"KATOIII (stomach, semi-adherent, top dose 8 µM)",0.99,> 8 µM
"KCL-22 (chronic myeloid leukaemia, suspension, top dose 8 µM)",0.991,> 8 µM
"KE-37 (lymphoblastic leukaemia, suspension, top dose 8 µM)",0.969,> 8 µM
"KELLY (neuroblastoma, adherent, top dose 8 µM)",0.988,> 8 µM
"KG-1 (acute myeloid leukaemia, suspension, top dose 8 µM)",0.974,> 8 µM
"KGN (ovary, adherent, top dose 8 µM)",0.756,3.27 µM
"KINGS-1 (glioma, adherent, top dose 8 µM)",0.979,> 8 µM
"KLE (endometrium, adherent, top dose 8 µM)",0.974,> 8 µM

Cell Line,AUC,IC50
"KM12 (large intestine, adherent, top dose 8 µM)",0.928,> 8 µM
"KM-H2 (Hodgkin lymphoma, suspension, top dose 8 µM)",0.942,> 8 µM
"KMH-2 (thyroid, adherent, top dose 8 µM)",0.99,> 8 µM
"KMOE-2 (acute myeloid leukaemia, suspension, top dose 8 µM)",0.967,> 8 µM
"KMRC-1 (kidney, adherent, top dose 8 µM)",0.886,> 8 µM
"KMRC-20 (kidney, adherent, top dose 8 µM)",0.966,> 8 µM
"KMS-11 (myeloma, suspension, top dose 8 µM)",0.97,> 8 µM
"KNS-42 (glioma, adherent, top dose 8 µM)",0.981,> 8 µM
"KNS-62 (lung squamous cell carcinoma, adherent, top dose 8 µM)",0.976,> 8 µM
"KNS-81-FD (glioma, adherent, top dose 8 µM)",0.847,> 8 µM
"KON (head and neck, adherent, top dose 8 µM)",0.938,> 8 µM
"KOPN-8 (B-cell leukaemia, suspension, top dose 8 µM)",0.83,4.08 µM
"KP-1N (pancreas, adherent, top dose 8 µM)",0.983,> 8 µM
"KP-2 (pancreas, adherent, top dose 8 µM)",0.963,> 8 µM
"KP-3 (pancreas, adherent, top dose 8 µM)",0.984,> 8 µM
"KP-N-YN (neuroblastoma, adherent, top dose 8 µM)",0.983,> 8 µM
"KS-1 (glioma, adherent, top dose 8 µM)",0.743,–
